Laboratory results from PubChem BioAssay (NCATS).
Inconclusive means that the source gave no clear call. Such entries were picked first, then a sample of the others. For some assays here: Potencies beside an inconclusive call are fits to weak or partial responses and may not hold up. Active and inactive are the calls of the source. Unless noted, calls follow the shape of the dose curve; as a rule, active = well fitted curve in the direction sought with a large enough effect; inconclusive = small, poorly fitted or top-dose-only effect, or another doubt; inactive = no such curve, though single readings can be large; an effect the other way counts as inactive or inconclusive. Numbered stars: 1 amine (or outer) side, 2 acyl side, 3 side chain; on linkers, the order of the positions; unused ones are H or OH. Bridge positions count the residues as written; N and C are the ends. Square brackets hold non-standard residues; d marks the D form. Peptide text beside a SMILES is read from it. * marks the point of attachment. ξ: configuration not given here. X4 = C[C@@H](Oc1ccc([C@H](N[*:1])C(=O)[*:2])cc1)[C@]1(/C=C\C(=O)[*:3])CO1; d(aIle) = CC[C@H](C)[C@@H](N)C(=O)O; X3 = CC(C)[C@@H](O)C(C)C(=O)*; ξNMeF = CNC(Cc1ccccc1)C(=O)O; ξT = CC(O)C(N)C(=O)O; ξS = NC(CO)C(=O)O

Tests used:
[1] = test system: Zika virus NS2B-NS3 protease (linked construct); experiment: Primary screen NINDS Rhodamine qHTS for Zika virus inhibitors (AID 1347160)
Procedure, shortened: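 Purified NS2B-NS3 protease with the NS2B hydrophilic domain joined by a flexible linker (25 nM) in 10 mM Tris-HCl pH 8.0, 0.01% Tween 20, preincubated 15 min at RT with compound; Rhodamine110 peptide substrate 1.5 µM; fluorescence change over 15 min; 4-parameter Hill fit.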

[2] = HPAF-II Cancer Cell Toxicity qHTS against the NCATS CANVASS Library (AID 1347346)
Procedure, shortened: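 Luminescence from CellTiter-Glo, added after 72 h compound exposure and a 15 min room-temperature incubation, served as the viability readout. HPAF-II cells (1000/well) received an 11-point concentration series.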

[3] = UWB1.289 Cancer Cell Toxicity qHTS against the NCATS CANVASS Library (AID 1347347)
Procedure, shortened: (§1)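 ATP content after 72 h treatment, detected by CellTiter-Glo luminescence (15min room-temperature development), reflects cell viability. Wells contained 1000 cells and received compounds at 11 concentrations.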

[4] = Panc-1005 Cancer Cell Toxicity qHTS against the NCATS CANVASS Library (AID 1347349)
Procedure, shortened: as §1

[5] = UWB1.289-WTBRCA1 Cancer Cell Toxicity qHTS against the NCATS CANVASS Library (AID 1347354)
Procedure, shortened: (§2)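 Luminescent ATP read-out (CellTiter-Glo, 15min at room temperature) measures survival after cells face an 11-point compound series for 72 hours at 37 degrees C/5% CO2.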

[6] = target: Nuclear receptor subfamily 1 group I member 3 (Homo sapiens) (UniProt Q14994); experiment: qHTS for Constitutive Androstane Receptor (CAR) Antagonist screened against the NCATS CANVASS Library (AID 1347372)
Sequence of UniProt Q14994 (Q14994 whole entry, looked up): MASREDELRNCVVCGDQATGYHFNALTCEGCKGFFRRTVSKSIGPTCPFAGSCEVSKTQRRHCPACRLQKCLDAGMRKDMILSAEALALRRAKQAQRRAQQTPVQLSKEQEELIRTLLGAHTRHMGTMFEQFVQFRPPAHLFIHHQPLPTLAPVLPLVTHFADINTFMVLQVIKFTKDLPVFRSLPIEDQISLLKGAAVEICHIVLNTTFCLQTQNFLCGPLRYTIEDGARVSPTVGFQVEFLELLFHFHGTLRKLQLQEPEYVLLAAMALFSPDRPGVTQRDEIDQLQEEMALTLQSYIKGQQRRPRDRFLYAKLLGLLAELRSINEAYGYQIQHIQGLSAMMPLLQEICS
Procedure, shortened: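 HepG2 cells stably carrying hCAR and a CYP2B6-2.2kb luciferase reporter were exposed to compounds plus 50 nM CITCO for 24hr at 37C. CAR activity was read by ONE-Glo luminescence, with viability measured first by CellTiter-Fluor.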

[7] = qHTS for Activators of p53 Stress Response Pathway screened against the NCATS CANVASS Library (AID 1347388)
Procedure, shortened: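 p53RE-bla HCT-116 cells (4000/well) were plated 5 h at 37C, exposed to compounds for 16 h at 37C over an 11-point concentration series, then loaded with CCF4 for 2 h at room temperature; 460/530 nm emission ratio read.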

[8] = Secretion counterscreen for inhibitors of the SERCaMP assay screened against the NCATS CANVASS Library (AID 1347390)
Procedure, shortened: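 SH-SY5Y cells with constitutively secreted GLuc reporter, 1000 cells/well, treated 20 h at 37C with compounds at 0.001 - 77 uM final; secreted luciferase read as luminescence after coelenterazine; Brefeldin A as positive control.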

[9] = qHTS for inhibitors of ER calcium dysfunction: SERCaMP assay screened against the NCATS CANVASS Library (AID 1347393); details: SH-SY5Y GLuc-SERCaMP (Gaussia luciferase released on ER calcium loss) secretion, thapsigargin, luminescence; series mostly up to 76.6 µM
Procedure, shortened: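 qHTS in SH-SY5Y reporter cells: 16 h compound pretreatment, 4 h thapsigargin, then secreted Gaussia luciferase measured by luminescence.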

[10] = Vero-766 cells viability qHTS against the NCATS CANVASS Library: Counterscreen for Zika virus inhibition assay (AID 1347394)
Procedure, shortened: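 Vero 766 cells (1000/well), without Zika virus, were exposed to compounds for 72 h at 37C. Viability was measured by CellTiter Glo luminescence. Media-only wells served as 100% inhibition.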

[11] = qHTS for inhibitors of Rabies Virus screened against the NCATS CANVASS Library (AID 1347402; calls by dose curve)
[12] = U-118MG Cancer Cell Toxicity qHTS against the NCATS CANVASS Library (AID 1347351)
Procedure, shortened: as §1

[13] = G06 Cancer Cell Toxicity qHTS against the NCATS CANVASS Library (AID 1347368)
Procedure, shortened: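 Dog G06 glioma line, 500 cells/well; cpds pin-transferred, 11-pt; 72 hr, 37C/5% CO2; CellTiterGlo luminescence (ATP) endpoint.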

[14] = qHTS for Hypoxia signaling pathway (HIF-1) antagonists against the NCATS CANVASS Library (AID 1347374)
Procedure, shortened: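 HRE-bla ME-180 cells in medium with 0.5% dialyzed FBS received compounds (11-point series) plus CoCl2 (60 uM addition stock) for 17 hrs at 37C. Beta-lactamase activity read with CCF4 (405 nm ex, 460/530 nm em); CellTiter-Glo viability measured in same wells.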

[15] = qHTS for Hypoxia signaling pathway (HIF-1) agonists against the NCATS CANVASS Library (AID 1347375)
Procedure, shortened: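 ME-180 HRE-bla reporter cells; 2,000/well, 0.5% dialyzed FBS; cpd added after 5 h, 17 h 37C/5% CO2; CCF4-AM 2 h RT; FRET 460/530 nm; CellTiter-Glo viability same wells, 30 min.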

[16] = qHTS for H2AX Agonists against the NCATS CANVASS Library (AID 1347378)
Procedure, shortened: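 CHO-K1 cells (1000/well, overnight at 37C) exposed to compounds at several concentrations for 3 hr at 37C, 0.76% DMSO final. Lysates read by TR-FRET (phospho-H2AX S139 Eu-cryptate antibody / H2AX-d2 antibody) after 24 hr at room temperature; 665/615 nm ratio.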

[17] = qHTS for Antimalaria activity screened against the NCATS CANVASS Library (AID 1347380)
Procedure, shortened: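 Dd2 strain, infected erythrocytes 2.5% Hct final / 0.3% parasitemia. 11-pt qHTS titration, 72 h, 37C, 5% O2, 5% CO2. Lysis buffer + SYBR Green, 18 h, fluorescence 485/535 nm.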

[18] = A2780 Cisplatin Sensitive Ovarian Cancer Cell Toxicity qHTS against the NCATS CANVASS Library (AID 1347353)
Procedure, shortened: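 Luminescent ATP content (ATPLite, 10 min at room temperature) served as the read-out after cells had been exposed to compounds for 72 hours at 37 °C. Dosing followed an 11-point concentration series.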

[19] = HEK293 18hr Apoptosis Induction qHTS against the NCATS CANVASS Library (AID 1347357)
Procedure, shortened: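 HEK293 cells (500/well, DMEM + 10% FBS) treated with an 11-point series for 18 h at 37 degrees C. Caspase-3/7 activity read by Caspase-Glo luminescence after 15 min at room temperature.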

[20] = qHTS for activators of dead-cell proteases activity screened against the NCATS CANVASS Library (AID 1347392)
Procedure, shortened: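 HepG2 cells (2000/well) attached 18 h at 37C, then exposed 5 h to compounds (11-point qHTS). Dead-cell protease activity read as luminescence from cell-impermeant AAF-aminoluciferin substrate after 15 min at room temperature.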

[21] = qHTS for inhibitors of Wild type Zika virus screened against the NCATS CANVASS Library (AID 1347396)
Procedure, shortened: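 Vero 766 (African green monkey) cells, 1000 per well, attached overnight, then compounds were added in an 11-point series before wild-type Zika virus infection. After 72 h at 37C, cell viability was read as CellTiter Glo luminescence.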

[22] = OV-KATE Cancer Cell Toxicity qHTS against the NCATS CANVASS Library (AID 1347345)
Procedure, shortened: as §1

[23] = HEK-293 Cancer Cell Toxicity qHTS against the NCATS CANVASS Library (AID 1347355)
Procedure, shortened: as §2

[24] = KB-8-5-11 Cancer Cell Toxicity qHTS against the NCATS CANVASS Library (AID 1347364)
Procedure, shortened: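 Plate 500 KB-8-5-11 cells per well in DMEM + 10% FBS, add compounds by pin transfer, incubate 72 hr at 37C. Add CellTiter-Glo, wait 10 minutes at room temperature, read luminescence.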

Measured: Potency

CO[C@H]1C[C@H](O[C@H]2[C@@H](O)C[C@H](O[C@H]3CC[C@]4(C=O)[C@H]5CC[C@]6(C)C(C7=CC(=O)OC7)CC[C@]6(O)[C@@H]5CC[C@]4(O)C3)O[C@@H]2C)O[C@H](C)[C@H]1O[C@H]1C[C@@H](OC)[C@@H](O[C@@H]2O[C@H](CO)[C@@H](O)[C@H](O)[C@H]2O)[C@@H](C)O1 (stereo not given in full)
inactive: [9]
inconclusive: [3] 149 nM [cytotoxic, full curve] | [4] 74.9 nM [cytotoxic, full curve] | [5] 167 nM [cytotoxic, full curve] | [7] 117 nM [activator, single point] | [10] 741 nM [cytotoxic, full curve] | [11] 92.8 nM [inhibitor, full curve]
active: [1] 44000 nM | [2] 376 nM | [6] 417 nM | [8] 767 nM

CC[C@H](C)[C@H]1NC(=O)[C@@H](NC(=O)C(C)[C@H](O)C(C)C)[C@@H](C)OC(=O)C2COC(=O)CNC(=O)/C=C\[C@]3(CO3)[C@@H](C)Oc3ccc(cc3)[C@H](NC1=O)C(=O)N(C)C(Cc1ccccc1)C(=O)NC(C(C)O)C(=O)N2 (stereo not given in full) (X3-T[d(aIle)][X4][ξNMeF][ξT][ξS]; ester 1-C; linker 3-6 via G)
inconclusive: [1] 17200 nM [inhibitor, partial curve, poor fit] | [3] 10400 nM [cytotoxic, partial curve, poor fit] | [13] 7240 nM [cytotoxic, partial curve] | [17] 4630 nM [cytotoxic, partial curve, poor fit] | [8] 5980 nM [inhibitor, partial curve, poor fit]
inactive: [12] | [14] | [15] | [16]

C1=C2CCCN[C@H]2C2CC1[C@H]1CCCCN1C2 (stereo not given in full)
inconclusive: [1] 19600 nM [inhibitor, single point] | [13] 26400 nM [cytotoxic, single point]
inactive: [2] | [18] | [19] | [20] | [9] | [21]

C[C@]12CC(O)C3[C@@H](CCC4C[C@@H](O)CC[C@@]43CO)[C@@]1(O)CCC2C1=CC(=O)OC1 (stereo not given in full)
active: [1] 62100 nM
inactive: [22] | [23] | [24] | [9] | [11]
inconclusive: [13] 1660 nM [cytotoxic, full curve]
